# Assay results from ChEMBL document CHEMBL4888484, “Replenishing the malaria drug discovery pipeline: Screening and hit evaluation of the MMV Hit Generation Library 1 (HGL1) against asexual blood stage Plasmodium falciparum ,using a nano luciferase reporter read-out” (2022).
# In all, about 150,000 compounds went through this assay and about 540 (0.36%) showed an effect of 50% or more. Some of the results follow.
# Tested on: Plasmodium falciparum
# Assay: Primary screen in NF54 nanoGlo assay, in single point, at 2uM, 72h; a lower Z score goes with more inhibition
# Format: functional, Erythrocyte
# Details: timepoint 72 hour
Structure (SMILES),% Inhibition [%],Z score
Cc1nsc(NC(=O)COc2cccc(C)c2C)n1,7,-1.07
C[C@@H](c1cnn(C)c1)N(C)c1cc(N2CCOCC2)ncn1,-11,0.96
Cc1[nH]c(CN2CCC[C@H](C(=O)N3CCCC3)C2)cc1C#N,4,-0.55
C=C(C)CN(CC)C(=O)Nc1ccn(CCCOC)n1,-10,1.32
CC1CCOC1C(=O)N(CC(F)(F)F)C(C)C1CC1 (stereo not drawn),4,-0.44
COc1ccc(CNC(=O)c2cccn2-c2cccnc2)cc1,-10,0.97
COc1cccc(NC(=O)Cn2nc3c4ccccc4ncn3c2=O)c1,-9,1.56
COc1ccc(CNC(=O)[C@@H]2CCN(c3ccc(F)cc3)C2=O)cc1,-4,0.38
CC(=O)NCCN(CCC(=O)Nc1ccc(Cl)cc1F)[C@@H](C)C(=O)OC(C)(C)C,2,-0.18
CNC(=O)c1cccc(N2CC[C@@]3(CCCN(C4CCCC4)C3=O)C2)n1,-3,0.29
Cc1cc(C(=O)N(Cc2cccs2)c2ccc(F)cc2F)on1,13,-1.31
NC(=O)c1ccnc(/C=C/C2CCCCC2)c1,-3,0.42
Clc1ccc(-c2[nH]ncc2CN2CCC(Cc3ccccc3)CC2)c(Cl)c1,-7,1.3
CNC(=O)c1cnc(C=Cc2c(C3CC3)cnn2C)s1,-3,0.42
COc1ccc(-c2ncc3c(n2)CCN(S(=O)(=O)c2ccc(F)cc2)C3)cc1,-3,0.44
Fc1ccc(CN[C@H](c2ccc3c(c2)CCC3)c2cccs2)c(F)c1,6,-0.73
CCc1ccccc1NC(=O)CN1CCN(Cc2c(C)cc(C)cc2C)S1(=O)=O,-21,1.87
CN(C)c1cccc(NC(=O)c2ccc(S(C)(=O)=O)cc2)n1,-1,0.19
O=C(O)c1ccc(CN2CC[C@H](c3nnc(-c4ccccc4)o3)C2)cc1,-1,0.16
O=C(c1ccc2ncsc2c1)N1CCC[C@H](Oc2cnccn2)C1,6,-0.73
CN(C[C@@H]1C[C@H](F)CN1Cc1cccs1)C1CCOC1 (stereo partly drawn),-6,0.66
Cc1noc(C)c1CN1C[C@H]2CC[C@@H](C1)N(C(=O)Nc1ccccc1F)C2,1,-0.14
C#CCNC(=O)CCCC(=O)c1c(C)cc(C)cc1C,-2,0.38
Cc1cc(Br)cc(Cl)c1OCC(=O)NCC(C)C,-11,2.08
Cc1nn(C)c2nc(Nc3c(N4CCCC4)nn(C)c3C)sc12,-8,0.88
CCc1noc(CO[C@H]2CCCN(C(=O)Cc3cccs3)C2)n1,3,-0.5
c1cnn(-c2ccc(CN3CCCC4CCCCC43)cc2)c1 (stereo not drawn),-3,0.49

Structure (SMILES),% Inhibition [%],Z score
CCOC1CC(NC(=O)N2CCCC(C)(CO)C2)C12CCC2 (stereo not drawn),-7,0.89
Cc1ccc(NC(=O)Cn2c(=O)n(CCc3cccs3)c(=O)c3sccc32)cc1C,2,-0.24
CCc1nnc(-c2ccc3ccn(CC(=O)N4CCN(c5ccc(OC)cc5)CC4)c3c2)o1,-1,0.14
N#Cc1c(NC(=O)c2cc(Cl)sc2Cl)sc2c1CCCC2,-13,2.29
Cc1cnc(CN(C)CCN2CCOCC2)c(C)c1O,-5,1.04
Cc1cccc(-c2nc3ccc(C(=O)NCCN4CCOCC4)cc3nc2-c2cccc(C)c2)c1,11,-1.38
CN(C(=O)C1CCCCCC1)[C@H]1CCCN(C(=O)C2CCCCCC2)CC1,-8,1.12
CC(C)c1nc(CNc2nc(-c3ccccc3)no2)no1,-6,0.96
Cc1nn(-c2ccc(C(=O)NCCc3cccs3)cn2)c(C)c1C,0,-0.01
CCOc1ccccc1CNC(=O)C1CCN(c2c(C(=O)N3CCCC3)cnc3snc(C)c23)CC1,4,-0.52
Cc1cccc2c(N3CC[C@H]4CCCC[C@H]43)ncnc12,-6,0.7
CNc1cc(-c2nc(CC3CCN(C)CC3)nn2CC(F)(F)F)ccn1,-9,1.2
Cc1ccc(C)c(OC2CCN(S(=O)(=O)c3c(N)noc3C)CC2)c1,-9,1.53
Cc1nnc(NC2CCCCC2)nc1O,-45,5.28
CC[C@H](Oc1cccc(C)c1)C(=O)NS(=O)(=O)c1sc(C)nc1C,-6,1.05
C[C@H]1Cc2cc(C(=O)N3CCC4(CC3)c3nc[nH]c3CCN4C)ccc2O1,-11,1.51
CCC(=O)Nc1c(-c2ccccn2)nsc1C(=O)N[C@@H](C)CC,-2,0.23
Cc1sc(-c2noc(C(C)C)n2)cc1S(=O)(=O)N1CCC[C@H](C(=O)N2CCN(C)CC2)C1,4,-0.4
CCCC[C@H]1C(=O)NCCN1C(=O)Nc1cccnc1OC,-7,1.1
Cc1noc([C@@H]2CC[C@H](CNCC(C(C)C)C(C)C)O2)n1,-16,1.96
O=C(Nc1cccnc1)[C@H]1CC(=O)N(C2CCOCC2)C1,-2,0.38
Cc1cc(C(=O)Nc2nc3cc4c(cc3s2)OCCCO4)on1,-10,1.23
O=C(N/C(=N/c1ccccc1)N1CCN(C2CCCCC2)CC1)c1ccccc1,-7,1.22
Cc1nc(N2CCC[C@@H]2CO)c2cnn(-c3cccc(Cl)c3)c2n1,-2,0.27
N#Cc1cc2c([nH]c1=O)CCN(C(=O)c1cccc(Oc3ccc(F)cc3)c1)C2,-6,0.9
COc1ccccc1C(=O)NC(=O)COC(=O)CN1C(=O)NC2(CCCCC2C)C1=O (stereo not drawn),-7,0.79
O[C@@H](COCc1ccccc1)Cn1ccnc1-c1cnccn1,-4,0.36
